In PubChem BioAssay AID463173 (ICCB-Longwood Screening Facility, Harvard Medical School, 2010):
About 4,300 (8.3%) of roughly 52,000 compounds were called active. Rule as the data show it: active = survival mostly below about 52% (no sharp cut-off); inactive = mostly above about 56%. The list shows a part of the results.

tested on: DeltatarO mutant; test: growth inhibition of S. aureus wild type versus tarO mutant, primary screen, teichoic acid synthesis inhibitors, RN4220, OD600 (AID 463173); conditions: OD600, 18 h, hits give low values, screened at 18.75 µg/mL (by protocol)

Compound	survival
O=C(C1CC1)N1CCc2cc(Br)cc(S(=O)(=O)Nc3ccc(C(F)(F)F)cc3)c21	active: 41%
COc1ccc(S(=O)(=O)N(CCc2ccccc2)CC(=O)NCc2ccc(C)cc2)cc1	inactive: 56%
CCCC(=O)Nc1nnc(S(=O)(=O)N(C)c2ccccc2)s1	inactive: 108%
CCC1CCCCN1C(=O)CSc1nc(-c2ccc(OC)cc2)cc(C(F)(F)F)n1 (stereo not drawn)	active: 1%
O=C(NC(=S)Nc1ccc(N2CCOCC2)cc1)c1ccccc1	inactive: 76%
CCn1cc2nc(SCC(=O)Nc3cccc(Cl)c3C)n(Cc3ccc(Cl)cc3)c(=O)c2n1	inactive: 55%
CCOc1ccc(C(=O)Nc2ccc3nc(SCC(=O)N4CCCC4)sc3c2)cc1	inactive: 62%
CCc1ccc(CNC(=O)c2cnc3sc(N4CCCCCC4)nn3c2=O)cc1	inactive: 96%
CC(C)c1ccc(NC(=O)CN(C)S(=O)(=O)c2ccc3c(c2)n(C)c(=O)c(=O)n3C)cc1	inactive: 85%
CCOC(=O)N1CCN(CCC(=O)Nc2cc(C)ccc2C)CC1	inactive: 71%
CCn1cnc2cc(NCc3ccc(N(C)C)cc3)ccc21	inactive: 72%
CCCCn1c(SCc2ccccc2C#N)nc2c(sc3ccccc32)c1=O	inactive: 55%
Cc1ccc(-n2ncc3c(=O)n(Cc4cccc(C(F)(F)F)c4)cnc32)cc1C	inactive: 93%
c1ccn(-c2ccc(N3CCOCC3)cc2)c1	inactive: 66%
COC(=O)C1=C(C)Nc2nc3ccccc3n2C1c1ccccc1 (stereo not drawn)	inactive: 97%
CCOC(=O)Cn1c(=O)cc(C)c2c(C)nn(-c3cccc(F)c3)c21	inactive: 81%
Cc1ccc2c(c1)-c1onc(C(=O)N(C)c3ccc(F)cc3)c1CO2	inactive: 65%
Cc1cccc(CC(=O)Nc2cccc(-c3cn4cccnc4n3)c2)c1	inactive: 94%
CC1=C(C)NC(=S)SC1	inactive: 101%
CCOc1ccc(NC(=O)Cn2cc(C(=O)c3ccccc3)c(=O)c3cc(OC)ccc32)cc1	inactive: 73%
COC(=O)c1cc(NC(=O)CCc2c(C)nc3nc(C)nn3c2C)cc(C(=O)OC)c1	inactive: 84%
CC(=O)N1C(=O)/C(=C2\SC(=S)N(C(C)C(=O)O)C2=O)c2ccccc21 (stereo not drawn)	inactive: 112%
CCN1C(=O)c2ccccc2S(=O)c2ccc(C(=O)N3CCN(c4cccc(Cl)c4)CC3)cc21 (stereo not drawn)	inactive: 59%
O=C(Cc1ccc(F)cc1)NCCc1csc2nc(-c3ccc(Cl)cc3)nn12	inactive: 95%

Compound	survival
O=C(NCc1ccc2c(c1)CCN2C(=O)c1ccncc1)c1cccc(F)c1	inactive: 96%
CCOC(=O)c1[nH]c(C)c(C(=O)NCc2ccccc2Cl)c1C	inactive: 108%
O=C(CCc1nnc2n(Cc3ccccc3Cl)c(=O)c3ccccc3n12)Nc1ccccc1	inactive: 86%
CCCCN(c1ccccc1)S(=O)(=O)c1cc2c3c(c1)C(C)C(=O)N3CCC2 (stereo not drawn)	inactive: 69%
COc1ccc(NC(=O)c2ccc(-c3nc(CSc4ccccc4)c(C)o3)cc2)c(OC)c1	inactive: 74%
CCc1ccc(S(=O)(=O)Nc2ccc3oc(C)c(C(=O)OCCOC)c3c2)cc1	active: 32%
Cc1cccc(NC(=O)c2cc3c(C)nn(-c4ccccc4)c3s2)c1	active: 6%
COc1ccc(CNC(=O)C2CCN(S(=O)(=O)Cc3ccccc3)CC2)cc1	inactive: 107%
O=C(Cc1ccccc1)NCc1ccccn1	inactive: 93%
CC(=O)C(Sc1nc(-c2ccccc2Cl)nc2c1c(=O)n(C)c(=O)n2C)C(=O)N(C)C (stereo not drawn)	inactive: 75%
CCCCN(CC)C(=O)Cn1cc2c(n1)-c1c(oc(C(=O)N3CCCC3)c1C)CC2	inactive: 76%
CCOc1ccc(C2c3[nH]c4ccccc4c3CCN2C(=O)CCC2CCCC2)cc1 (stereo not drawn)	inactive: 90%
CCOC(=O)C1CCCN(S(=O)(=O)c2cc(Br)cc3c2N(C(=O)CC)CC3)C1 (stereo not drawn)	inactive: 60%
Fc1ccc(-n2ncc3c(NCCCc4ccccc4)ncnc32)cc1	inactive: 109%
Cc1ccc(COC(=O)c2ccc(-c3nnn(Cc4ccc(C)cc4)n3)cc2)cc1	inactive: 69%
CCN(CCCNC(=O)CN1N=C(c2ccc(C)cc2)CCC1=O)c1ccccc1	active: 0%
O=c1cc(-c2ccccc2)nc(SCc2nc(-c3cccc(C(F)(F)F)c3)no2)[nH]1	inactive: 92%
Cc1nn(-c2ccc(N3CCCCC3)nn2)c(C)c1CCC(=O)Nc1cccc(F)c1	inactive: 73%
Cc1ccn2c(=O)c(NC(=O)c3cccc([N+](=O)[O-])c3C)c(C)nc2c1	inactive: 55%
O=C(NCCCc1ccccc1)c1ccc2c(c1)sc1nc(-c3ccc(F)cc3)cn12	active: 44%
Cc1ccccc1CN1C(=O)c2ccccc2Sc2ccc(C(=O)NCCCN3CCOCC3)cc21	inactive: 95%
CCC(=O)N=c1sc2ccccc2n1C	inactive: 87%
CCOc1ccc(CC(=O)NCc2ccc3c(c2)CCN3C(=O)c2ccc(F)cc2)cc1OCC	inactive: 92%
Cc1ccc(Sc2c(C)nn(-c3ccccc3)c2OC(=O)CC(C)C)cc1	active: 21%

Compound	survival
CC1(C)CC2(C=CC(=O)CC2)CCO1 (stereo not drawn)	inactive: 80%
O=C(NC1CCCCC1)c1ccc2ccccc2n1	inactive: 79%
CC(=O)c1ccc(S(=O)(=O)Nc2cccc(-c3ccc(N4CCCC4)nn3)c2)cc1	inactive: 89%
COc1ccc(C2CC(=O)C=C(NCCC(C)C)C2)cc1 (stereo not drawn)	inactive: 111%
Cc1ccc(NC(=O)NCc2c(-n3cccc3)sc3c2CCCC3)c(Cl)c1	inactive: 86%
Cc1ccc(CNC(=O)CCCn2nc(C)n3c(cc4sccc43)c2=O)cc1	inactive: 83%
CCN(Cc1ccccc1)S(=O)(=O)c1ccc(F)c(C(=O)Nc2ccc(C(C)C)cc2)c1	inactive: 101%
Cc1cccc(C)c1NC(=O)c1cc2sccc2n1Cc1ccc(F)cc1	inactive: 96%
COc1ccc(OC)c(CNc2ncc(-c3ccc(Cl)cc3)n2C)c1	active: 25%
CCOC(=O)c1cccc(NC(=O)NC2COc3ccccc3C2)c1 (stereo not drawn)	inactive: 98%
Cc1ccc(CNC(=O)c2cn(C)c3ccc(S(=O)(=O)N4CCC(C)CC4)cc3c2=O)cc1	inactive: 69%
O=C(CN1CCN(c2nc3ccccc3s2)CC1)Nc1ccc2c(c1)OCO2	inactive: 94%
COc1ccccc1NC(=O)c1oc2ccccc2c1NC(=O)c1c(F)cccc1F	inactive: 51%
CCOC(=O)C1(C)C=C(Nc2ccc(OC)cc2)C(=O)N1c1ccccc1 (stereo not drawn)	inactive: 60%
Cc1cc(C)cc(NC(=O)C2CCCN2S(=O)(=O)c2ccc3c(c2)C(C)(C)C(=O)N3C)c1 (stereo not drawn)	inactive: 52%
Cc1ccc(-c2nnn(CC(=O)NC(C)C)n2)cc1	inactive: 83%
COC(=O)c1cc2oc3ccccc3c2n1Cc1nc(-c2cccc(Cl)c2)oc1C	inactive: 133%
CCc1ccc(Nc2nn3c(=O)c4cc5c(cc4nc3s2)OCO5)cc1	inactive: 73%
O=C(Nc1cccc(Cl)c1Cl)c1cc(S(=O)(=O)N2CCC3(CC2)OCCO3)ccc1F	inactive: 60%
COc1cc(OC)cc(C(=O)Nc2ccc(S(=O)(=O)N3CCCCC3c3cccnc3)cc2)c1 (stereo not drawn)	inactive: 99%
Cc1ccc(-n2nc3c(N4CCC(C(=O)N5CCC(C)CC5)CC4)nnc(C)c3c2C)cc1	inactive: 107%
Cc1cc(C)c(Cn2c3ccccc3c3cnn(CC(=O)NC4CCCCCC4)c(=O)c32)c(C)c1	inactive: 133%
CCN(CC)c1ccc(/C=C2/SC(=O)NC2=O)cc1	active: 34%
COc1ccc(Cn2cc(C(=O)c3ccc(Cl)cc3)c(=O)c3cc4c(cc32)OCO4)cc1	inactive: 56%

Compound	survival
O=C(c1ccccc1N=Nc1c(O)[nH]c(=O)[nH]c1=O)N1CCOCC1	inactive: 95%
Cc1ccc(C)c(N2CCN(C(=O)c3cc4c(=O)n(Cc5cccnc5)ccc4nc3C)CC2)c1	active: 46%
NC(=O)Cn1c2[n+](c3ccccc31)CC(O)CS2 (stereo not drawn)	inactive: 81%
O=C(O)C1CCN1C1CCCCC1 (stereo not drawn)	inactive: 64%
Cc1cccc(CSc2nc3cccnc3n2Cc2ccc(C(=O)NCc3cccs3)cc2)c1	inactive: 93%
COc1ccc(NC(=O)CSc2nc3ccccc3n2CC(=O)N2CCCC(C)C2)cc1 (stereo not drawn)	inactive: 88%
CCn1c(=O)c2cc(C(=O)Nc3cc(C)c(Cl)cc3OC)sc2c2ccccc21	inactive: 69%
Cc1cccc(C(=O)Nc2c(-c3ccc(F)cc3)nc3ccccn23)c1	inactive: 91%
Cc1cc(C)n(-c2nc3cc(Cl)c(Cl)cc3nc2Nc2ccc(F)cc2C)n1	inactive: 89%
CC(C)Cn1c(=O)c2sccc2n2c(CCCC(=O)NCC(C)c3ccccc3)nnc12 (stereo not drawn)	inactive: 91%
Cc1c(C(=O)NC2CCCCC2)oc2ccccc12	inactive: 101%
O=C(NCCN1CCN(c2ccccc2F)CC1)C1COc2ccccc2C1 (stereo not drawn)	inactive: 78%
COCCn1nnnc1C(c1ccc(OC)c(OC)c1)N1CCc2ccccc21 (stereo not drawn)	inactive: 92%
C=CCNC(=O)c1cc(-c2ccccc2)on1	inactive: 93%
NC(=O)CN1CCC(N2CCCCC2)CC1	inactive: 96%
O=C(CSc1oc(-c2ccccc2)nc1S(=O)(=O)c1ccc(Br)cc1)NC1CCCCC1	inactive: 70%
N/C(=N/OC(=O)c1ccccc1)c1ccccn1	inactive: 87%
COc1cccc(-c2ccc3c(N)c(C(=O)Nc4ccc(Cl)cc4F)sc3n2)c1	inactive: 59%
CCc1ccccc1NC(=O)Cc1ccc(-n2c(C)nc3cccnc32)cc1	inactive: 105%
COc1ccc(OC)c(NC(=O)Cc2c(C(=O)O)[nH]c3ccc(Cl)cc23)c1	inactive: 54%
Cc1ccc(C2=Nc3ccccc3N(CC(=O)NCc3ccc(Cl)cc3)C(=O)C2)cc1C	inactive: 55%
